Experimental data taken from PubChem BioAssay AID624417 (National Center for Advancing Translational Sciences (NCATS), 2012).
About 6,400 (1.6%) of roughly 410,000 compounds were called active. This list was built around the results that the source calls inconclusive (neither active nor inactive); the mix of calls is not that of the screen. Calls come from the whole dose curve; as a rule, active = well fitted inhibition curve with a large enough effect; inconclusive = small, poorly fitted or top-dose-only effect; inactive = no such curve, though single readings can be large or run the other way. No potency is given beside an inconclusive call; the fits are too rough.

Target: Glucagon-like peptide 1 receptor (Homo sapiens) (UniProt P43220)
Test: qHTS of GLP-1 Receptor Inverse Agonists (Inhibition Mode); note: nearly all actives have a fitted effect of over 55% in size
Conditions: HEK293 GLP-1R CRE-luciferase, luminescence, 24 h, GLP-1R form is constitutively active; activity change, negative = inhibition: at 38.3 µM (top of the series) unless noted
Procedure, shortened: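 Inverse agonists were sought by their lowering of basal cAMP reporter luciferase output in HEK293 cells stably carrying constitutively active human GLP-1R, after 24 h compound treatment.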
% is set by controls: 0 for no effect and ±100 for the full control effect; potency is the fitted concentration of half-maximal effect; tags give direction and shape of the fitted curve.

Chain of UniProt P43220 (P43220 whole entry, looked up): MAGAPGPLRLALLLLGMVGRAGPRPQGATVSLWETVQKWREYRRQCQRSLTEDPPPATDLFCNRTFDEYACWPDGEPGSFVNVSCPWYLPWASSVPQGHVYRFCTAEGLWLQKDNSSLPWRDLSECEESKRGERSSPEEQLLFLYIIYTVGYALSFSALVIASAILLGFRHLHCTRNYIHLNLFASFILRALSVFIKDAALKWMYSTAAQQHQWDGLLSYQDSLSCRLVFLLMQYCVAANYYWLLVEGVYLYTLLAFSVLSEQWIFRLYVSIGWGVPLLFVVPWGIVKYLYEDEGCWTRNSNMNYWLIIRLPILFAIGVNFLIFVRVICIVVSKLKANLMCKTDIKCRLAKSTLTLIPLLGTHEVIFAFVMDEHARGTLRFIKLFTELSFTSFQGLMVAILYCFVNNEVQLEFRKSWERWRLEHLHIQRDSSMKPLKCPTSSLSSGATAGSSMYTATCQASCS

Row | SMILES | activity change, negative = inhibition | Potency
1 | COc1cccc(NC(=S)NC2CC3CCCC(C2)N3CC(C)C)c1 (centres undefined) | inactive: -26.3% | 
2 | CCCCNS(=O)(=O)c1ccc(NC(=O)C2c3ccccc3Oc3ccccc32)cc1 |  | inconclusive [inhibitor, partial curve, poor fit]
3 | Cc1cccc(-c2ccc3[nH]c4c(c3c2)CCN2C[C@@H]([C@H](C)O)[C@@H](N(C)C(=O)Nc3ccc(F)cc3)C[C@@H]42)c1 |  | inconclusive [inhibitor, partial curve, poor fit]
4 | O=C(NCC(c1ccco1)N1CCCC1)c1ccccc1Sc1ccc(C(F)(F)F)cc1[N+](=O)[O-] (centres undefined) |  | inconclusive [inhibitor, single point]
5 | Cc1c(Cl)cccc1NC(=S)NCc1ccc(Cl)cc1 |  | inconclusive [inhibitor, full curve, poor fit]
6 | Cc1ccc(Nc2c(-c3ccccn3)nc3cc(C)ccn23)cc1 |  | inconclusive [inhibitor, partial curve, poor fit]
7 | O=C(Nc1ccc2c(c1)OCCO2)C(c1ccccc1F)n1c(=O)c(-c2cc3ccccc3[nH]2)nc2ccccc21 (centres undefined) |  | inconclusive [inhibitor, partial curve, poor fit]
8 | COc1ccc(CCNC(=O)CSc2cn(Cc3cccc(C)c3)c3ccccc23)cc1OC |  | inconclusive [inhibitor, partial curve, poor fit]
9 | COc1ccccc1NC(=O)C1=C(C)Nc2nc3ccccc3n2C1c1cccc(OC)c1OC (centres undefined) | inactive: -9.24% | 
10 | Cc1ccn2c(=O)cc(COc3cccc(NC(=O)Nc4cccc(Cl)c4C)c3)nc2c1 | inactive: 0.46% | 
11 | Cc1ccc(CNC(=O)c2ccc(CS(=O)Cc3cccc(Cl)c3)o2)cc1 (centres undefined) |  | inconclusive [inhibitor, partial curve, poor fit]
12 | CCOc1ccccc1OCCOc1ccccc1OC(C)C |  | inconclusive [inhibitor, partial curve, poor fit]
13 | CC/C(=N\Nc1ccc([N+](=O)[O-])cc1[N+](=O)[O-])c1ccc(O)cc1 | inactive: -21.5% | 
14 | CCOC(=O)C1=C[C@@H](C(C)(C)C)N(S(=O)(=O)c2ccc(C)cc2)[C@H]1c1ccc(OC)cc1 |  | inconclusive [inhibitor, full curve]
15 | FC(F)(F)c1ccc(NC(=S)NCc2ccccc2)cc1 |  | inconclusive [inhibitor, single point]
16 | CCOC(=O)c1ccc(NS(=O)(=O)N2CCCCCC2)cc1 |  | inconclusive [inhibitor, single point]
17 | CCN1CCCC1Cn1cnc2c([nH]c3ccc(C)cc32)c1=O (centres undefined) |  | inconclusive [inhibitor, single point]
18 | Cc1ccc(Cc2c(-c3ccco3)nc3c(C)cc(Br)cn23)cc1 |  | inconclusive [inhibitor, single point]
19 | O=C(CSc1nc(-c2ccc(F)cc2)[nH]c1-c1ccc(F)cc1)Nc1ccc2c(c1)OCO2 |  | inconclusive [inhibitor, single point]
20 | COc1nc(-c2ccccc2)nc(C)c1CC(=O)O | inactive: 32.8% | 
21 | CC(C)(C)N(Cc1ccccc1)C(=O)CN1C(=O)c2ccccc2C1=O |  | inconclusive [inhibitor, partial curve]
22 | CC(C)N=C1CC(C)(C)CC(=O)/C1=C(/O)CCCN1C(=O)c2ccccc2C1=O |  | inconclusive [inhibitor, partial curve, poor fit]

Row | SMILES | activity change, negative = inhibition | Potency
23 | c1ccc2c(-c3nc4ccccc4[nH]3)cccc2c1 |  | inconclusive [inhibitor, full curve]
24 | COc1cc(NC(=O)CSc2ccc(-c3ccccn3)nn2)cc(OC)c1 |  | inconclusive [inhibitor, single point]
25 | O=C(CN1C(=O)c2cccnc2Oc2ccc(Cl)cc21)Nc1cccc(C(F)(F)F)c1 |  | inconclusive [inhibitor, single point]
26 | COC(=O)c1[nH]c2ccccc2c1NC(=O)CNC1CCCCC1 |  | inconclusive [inhibitor, single point]
27 | COc1ccc(CCN2CCCC(CN(C)Cc3cc(OC)ccc3OC)C2)cc1 (centres undefined) |  | inconclusive [inhibitor, partial curve, poor fit]
28 | Clc1cccc(N/N=C/c2ccncc2)c1 |  | inconclusive [inhibitor, partial curve, poor fit]
29 | CCOC(=O)CNc1nc(C(C)(C)C)nc2c1nnn2Cc1ccccc1 |  | inconclusive [inhibitor, partial curve, poor fit]
30 | COc1cccc(C(C(=O)NCc2ccccc2)N(C(=O)c2csnn2)C2CC2)c1 (centres undefined) |  | inconclusive [inhibitor, single point]
31 | CC1S/C(=N/N=C/c2ccco2)N(Cc2ccccc2)C1=O (centres undefined) |  | inconclusive [inhibitor, partial curve, poor fit]
32 | O=C(CCn1ccc2cc(S(=O)(=O)N3CCCC3)ccc21)NCc1ccccc1Br | inactive: -14.8% | 
33 | CCCCN1C(=O)N(c2ccc(Cl)cc2)C(C)(O)CC1(C)C (centres undefined) |  | inconclusive [inhibitor, partial curve, poor fit]
34 | CC(C)OC(=O)Nc1ccc(Oc2c(F)c(F)c(F)c(F)c2F)cc1 |  | inconclusive [inhibitor, full curve, poor fit]
35 | COc1ccccc1CC(=O)NC1CCN(Cc2ccccc2)CC1 | inactive: 16.7% | 
36 | CC(Nc1c([N+](=O)[O-])c(=O)oc2ccccc12)C(Cl)c1ccccc1 (centres undefined) |  | inconclusive [inhibitor, partial curve, poor fit]
37 | CNC[C@H](CC1CCCCC1)NC[C@H](CO)NCC1(c2ccccc2)CC1 |  | inconclusive [inhibitor, partial curve, poor fit]
38 | OC(c1cccc(Cl)c1)c1ncc(-c2ccc(C(F)(F)F)cc2)[nH]1 (centres undefined) |  | inconclusive [inhibitor, partial curve, poor fit]
39 | Cc1cccc(C(=O)NCC(=O)NCCCSc2ccccc2)c1 |  | inconclusive [inhibitor, single point]
40 | COc1cc(C(=O)Nc2cccc(S(=O)(=O)N3CCCC3)c2)cc(OC)c1C |  | inconclusive [inhibitor, single point]
41 | O=C(NC(=S)N1CCN(CCO)CC1)C12CC3CC(CC(C3)C1)C2 | inactive: -4.7% | 
42 | Cc1cc(C)c2nc3nc(C)c(C)cc3c(N)c2c1 |  | inconclusive [inhibitor, partial curve]
43 | O=C(CCCN1C(=O)/C(=C/c2cccs2)SC1=S)Nc1ccccn1 |  | inconclusive [inhibitor, partial curve, poor fit]
44 | C=CCOC(=O)c1ccccc1C(=O)OCC=C | inactive: 5.03% | 

Row | SMILES | activity change, negative = inhibition | Potency
45 | N/C(=N\c1nc2ccccc2o1)NC(=O)C(Cc1ccccc1)N1C(=O)c2ccccc2C1=O (centres undefined) |  | inconclusive [inhibitor, partial curve, poor fit]
46 | CCc1ccc(OC2(C)CCN(Cc3ccc4c(c3)OCCO4)C2)cc1 (centres undefined) | inactive: -27.3% | 
47 | CN(CCOc1cccc2ccccc12)Cc1ccccc1 | inactive: -26.5% | 
48 | C1=C[C@@H]2CCN(Cc3ccccc3)Cc3cccc(c32)C1 | inactive: -12.3% | 
49 | Cc1ccc(OCC(=O)Nc2ccc(N3CCN(C(=O)c4ccco4)CC3)cc2)cc1 |  | inconclusive [inhibitor, single point]
50 | COc1cccc(CN(C)C(=O)c2cccc(OCc3ccccc3)c2)c1 |  | inconclusive [inhibitor, partial curve, poor fit]
51 | CC(C)(C)OC(=O)NCCCCCNC(=O)c1ncn(Cc2ccccc2)c1C(=O)NCCCCCNC(=O)OC(C)(C)C |  | inconclusive [inhibitor, full curve]
52 | CC(=O)Nc1ccc(OCC(O)CN2CCN(c3ccc(C)c(Cl)c3)CC2)cc1 (centres undefined) | inactive: -27% | 
53 | CCOC(=O)N1CCC(NC(=O)c2ccc3c(c2)sc2nc(-c4ccccc4)cn23)CC1 |  | inconclusive [inhibitor, single point]
54 | CSc1ccc(-c2nnc(NC(=O)c3ccc4c(c3)OCCO4)o2)cc1 | inactive: 1.73% | 
55 | Cc1ccc(CN2[C@@H](c3ccccc3)COCCS2(=O)=O)cc1 |  | inconclusive [inhibitor, partial curve, poor fit]
56 | CC(=O)c1c(NCCc2ccccc2)nc(=S)n(-c2ccccc2)c1C |  | inconclusive [inhibitor, single point]
57 | CCN(CC)c1ccc(NC(=O)CCCN2C(=O)C(c3ccccc3)Oc3cccnc32)c(C)c1 (centres undefined) | inactive: 19.8% | 
58 | CC(OC(=O)CNC(=O)c1ccccc1F)C(=O)Nc1nc(-c2ccccc2)cs1 (centres undefined) | inactive: 11.2% | 
59 | CCCC[C@@H]1C[C@H]1[C@@H](NC(=O)c1ccco1)c1ccc(Cl)cc1 |  | inconclusive [inhibitor, single point]
60 | Cc1nnc(N2CCC(C(=O)NCCC(C)C)CC2)c2nn(-c3ccc(Cl)cc3)c(C)c12 | inactive: 3.46% | 
61 | O=C(NCc1ccc(OC(F)(F)F)cc1)C1CC2Cn3c(nc4ccccc43)C2N1Cc1ccccc1 (centres undefined) |  | inconclusive [inhibitor, single point]
62 | COc1ccc(NC2CCCN(C(=O)C3(C)CCCCC3)C2)cc1 (centres undefined) |  | inconclusive [inhibitor, single point]
63 | COc1ccc(N2CCC(CNC(=S)Nc3c(C)cc(C)cc3C)C2)cc1 (centres undefined) |  | inconclusive [inhibitor, single point]
64 | CSCC(C)N1CCC(CO)(CCc2ccccc2)CC1 (centres undefined) | inactive: -8.31% | 
